Laboratory results from paper PMC4336329 (PLoS ONE, 2015).
In all, about 310,000 compounds went through this assay and about 2,200 (0.71%) showed an effect of 50% or more. The effect is printed as a negative number. Some of the results follow.

Molecular target: human ether-à-go-go-related gene (hERG) potassium channel (human, UniProt Q12809)
Assay: primary screen, population patch clamp on CHO cells stably expressing hERG

Chain of human ether-à-go-go-related gene (hERG) potassium channel (Q12809 whole entry, looked up): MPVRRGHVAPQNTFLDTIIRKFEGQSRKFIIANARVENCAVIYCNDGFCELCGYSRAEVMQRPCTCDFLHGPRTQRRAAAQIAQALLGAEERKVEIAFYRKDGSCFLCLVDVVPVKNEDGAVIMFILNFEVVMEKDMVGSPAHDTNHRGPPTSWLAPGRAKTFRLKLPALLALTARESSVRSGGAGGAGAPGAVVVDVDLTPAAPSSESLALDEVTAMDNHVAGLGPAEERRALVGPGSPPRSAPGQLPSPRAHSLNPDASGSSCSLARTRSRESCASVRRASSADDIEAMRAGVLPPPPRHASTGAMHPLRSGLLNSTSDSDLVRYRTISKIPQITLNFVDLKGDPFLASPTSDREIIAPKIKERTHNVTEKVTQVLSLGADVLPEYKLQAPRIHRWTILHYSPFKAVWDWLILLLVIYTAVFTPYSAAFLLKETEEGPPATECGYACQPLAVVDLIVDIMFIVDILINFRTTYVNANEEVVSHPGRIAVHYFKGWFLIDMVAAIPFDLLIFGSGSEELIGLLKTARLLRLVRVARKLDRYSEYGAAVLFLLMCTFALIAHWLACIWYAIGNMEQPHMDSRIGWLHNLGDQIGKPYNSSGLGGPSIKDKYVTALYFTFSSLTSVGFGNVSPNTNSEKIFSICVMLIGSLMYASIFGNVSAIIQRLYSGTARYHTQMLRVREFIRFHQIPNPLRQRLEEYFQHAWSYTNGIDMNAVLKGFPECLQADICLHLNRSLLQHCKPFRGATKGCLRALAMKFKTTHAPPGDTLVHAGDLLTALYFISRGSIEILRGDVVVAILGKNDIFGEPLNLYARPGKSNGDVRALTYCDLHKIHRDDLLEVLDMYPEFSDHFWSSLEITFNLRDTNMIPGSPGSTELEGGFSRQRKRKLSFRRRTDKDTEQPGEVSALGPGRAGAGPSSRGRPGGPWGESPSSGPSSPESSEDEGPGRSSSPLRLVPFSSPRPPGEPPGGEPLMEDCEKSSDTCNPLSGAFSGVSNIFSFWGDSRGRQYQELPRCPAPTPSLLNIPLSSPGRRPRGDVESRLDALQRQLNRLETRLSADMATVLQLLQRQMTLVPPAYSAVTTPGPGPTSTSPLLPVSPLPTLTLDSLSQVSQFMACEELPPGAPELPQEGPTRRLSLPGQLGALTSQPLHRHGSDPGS

Row | Structure (SMILES) | hERG current change (%, negative = inhibition) at 1uM
1 | COc1cc(NC(=O)c2cc(C)no2)cc(OC)c1OC | 19.9%
2 | N#C/C(=C\c1cccnc1)c1nc2c(s1)CCCC2 | 11.5%
3 | CC(C)CCN1CCN(Cc2nc3c(s2)CCCC3)CC1CCO (centres unmarked) | -4.81%
4 | O=C1CC(c2ccc(F)cc2)Sc2ccccc2N1 (centres unmarked) | -6.6%
5 | COC(=O)Cn1c(O)c(N=NC(=O)c2ccc3c(c2)OCO3)c2ccccc21 | 13.7%
6 | Cc1ccc(S(=O)(=O)NN2C(=O)c3ccccc3NC2c2ccccc2F)cc1 (centres unmarked) | 10.2%
7 | COc1cccc(CN(C)CC(=O)Nc2ccccc2C(=O)Nc2ccccc2)c1OC | 12.8%
8 | CCN1C(=O)c2ccccc2Sc2ccc(C(=O)NCCN3CCOCC3)cc21 | 4.7%
9 | CCOC(=O)c1nnn(-c2nonc2-n2cccc2)c1CCl | 19.5%
10 | CCc1nnc(NC(=O)c2ccc(COc3cccc(C)c3)o2)s1 | 20.6%
11 | COCC(=O)N1CCN(c2nc3ccccc3o2)CC1 | 13.3%
12 | Cc1ccc(C)c(NC(=O)c2sc(Cl)nc2C)c1 | 3.99%
13 | CCn1cc(C(=O)NCC(=O)NCCCN2CCOCC2)c(=O)c2cc3c(cc21)OCO3 | 10.2%
14 | CCCCCCn1c(=O)c(C(=O)Nc2cccc(C)n2)c(O)c2ccccc21 | 14.9%
15 | CCOc1ccc(C(=S)N2CCOCC2)cc1OC | 11.6%
16 | O=C(Nc1ccc2c(c1)OCO2)c1ccc([N+](=O)[O-])cc1[N+](=O)[O-] | 9.81%
17 | O=S(=O)(c1ccccc1)N1C2CCC1CC(O)(c1cccnc1)C2 (centres unmarked) | 4.06%
18 | CCOC(=O)c1c(/N=C/N(C)C)sc(C)c1C | 8.85%
19 | O=[N+]([O-])c1cc([N+](=O)[O-])c(Oc2cccnc2Br)cc1NN1CCCCC1 | 7.94%
20 | CN(C)C(=O)CN1C(=O)NC2(CCCc3ccccc32)C1=O (centres unmarked) | 16%
21 | COc1ccccc1N1CCN(C(=O)CSc2nc3ccccc3o2)CC1 | 10.8%
22 | O=C(NCCC1=CCCCC1)C1CCC(CNc2c(N3CCCCC3)c(=O)c2=O)CC1 (centres unmarked) | 14.7%
23 | CCOC(=O)c1c(C)n(O)c2ccc(Cl)cc2c1=O | 13%
24 | CCOC(=O)c1cnc2cc(F)c(F)cc2c1N1CCOCC1 | 12.8%
25 | Clc1cc(Cl)c2nc(N3CCCC3)sc2c1 | 12.6%
26 | COCCN(Cc1nc(-c2ccc(-c3ccccc3)cc2)oc1C)C(C)C | 2.62%
